In article PMC11467389:

Assay: Western blot of endogenous PDK1 in ST2 cells
Conditions: glycan lost; control: rhWnt3a alone

B1: PDK1 (pyruvate dehydrogenase kinase 1): OGT siRNA (protein)
parent chain: MRLARLLRGGTSVRPLCAVPCASRSLASASASGSGPASELGVPGQVDFYARFSPSPLSMKQFLDFGSVNACEKTSFMFLRQELPVRLANIMKEISLLPDNLLRTPSVQLVQSWYIQSLQELLDFKDKSAEDAKTIYEFTDTVIRIRNRHNDVIPTMAQGVTEYKESFGVDPVTSQNVQYFLDRFYMSRISIRMLLNQHSLLFGGKGSPSHRKHIGSINPNCDVVEVIKDGYENARRLCDLYYVNSPELELEELNAKSPGQTIQVVYVPSHLYHMVFELFKNAMRATMEHHADKGVYPPIQVHVTLGEEDLTVKMSDRGGGVPLRKIDRLFNYMYSTAPRPRVETSRAVPLAGFGYGLPISRLYAQYFQGDLKLYSLEGYGTDAVIYIKALSTESVERLPVYNKAAWKHYKANHEADDWCVPSREPKDMTTFRSS
expression_or_secretion: decreases
